According to the supplement of paper PMC11417369:
The list shows a part of the results.

Test system: PfHDP1 homeodomain (GST-tagged)
Assay: gcPBM binding intensity (ln(normalized median fluorescence intensity)); higher = stronger DNA binding
In short: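 Using an Agilent 4 × 180k array, primer-extended double-stranded 36-bp intergenic genomic probes and negative controls were exposed for 1 h to GST-fused P. falciparum DNA-binding domains expressed in E. coli. Binding was carried out in 1× PBS with 1% milk, 0.2 mg/ml BSA, 0.5% salmon testes DNA and 0.03% Triton X-100, and protein was detected with Alexa488 anti-GST antibody and a 488 nm scan. Binding intensity is the highest Masliner-normalised natural-log median intensity across replicate spots of either probe orientation.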

| Sequence | gcPBM binding intensity (ln) |
| --- | --- |
| ATATCTATAATAAACACACAAATAGATATAACATAT [CACACA_site7702] | 6.68 |
| AAAAAAAAATTAAAAACACACATATATATATATATA [CACACA_site1580] | 9.48 |
| AAAAAAAAAAAAACAACACACAATGTTTTATTTTAC [CACACA_site1613] | 6.19 |
| TAAAACAAAATAACATGTACAAAAAAAAAAAAAAAA [XGTACX_site2915] | 6.37 |
| ATGTAATATGTTCATGCATGTAAAATTACATTTAGA [TGCATGCA_site852] | 6.38 |
| CATATAAGAATCTTCTGTACTTATAAGAAAAGACAT [XGTACX_site8135] | 6.37 |
| ATACACAAATGCATACGTACATATATATATATATAT [XGTACX_site3504] | 9.35 |
| AAGGTAAAATATAAGTGTACTTTTTCTTAATCTTCG [XGTACX_site514] | 6.02 |
| TAATATTTATATAATTGTACTTTGTTTGTAAATCCA [XGTACX_site7292] | 6.21 |
| GGACGTATTAAAAGGCGTACACTAAATATTTTATGT [XGTACX_site146] | 6.49 |
| AAGATAATTACGCACACACACACACGCCCACAACTA [CACACA_site7255] | 8.48 |
| ATTATAATTTTGTAAAGTACATATTATTATATATTA [XGTACX_site7191] | 6.05 |
| AATGAAACAATACCCAGTAAAAAAAAAAAATAAATA [TGCATGCA_negctrl_site205] | 6.53 |
| ATATTTTTTTTCTTCACACACATGAGTTATAAATAA [CACACA_site7498] | 6.94 |
| TGTAATCTGGAGAAGAGTACACAGTATCTGGTAGCT [XGTACX_site4935] | 5.93 |
| ATATATAATATAATATGTACATATAATCAATCCTGT [XGTACX_site8694] | 6.72 |
| ATTTAGTATTCGAAACGTACACATATATATATATAT [XGTACX_site3910] | 9.37 |
| ATAATACATACATACATACACACATATATATATATT [CACACA_site3576] | 7.1 |
| TATTGTATTTCATATTGTACTAAAAAAAAAAAAAAG [XGTACX_site6694] | 6.24 |
| AAAAAAAAAAAAAAAACACACATACACATATATTTT [CACACA_site7768] | 6.8 |
| TATATTATTTATAGTAGTACATAAAATATAAATATT [XGTACX_site4417] | 6.2 |
| TAAAAAAAAAAAAAAACACACATATAAATATTTATA [CACACA_site6702] | 6.19 |

| Sequence | gcPBM binding intensity (ln) |
| --- | --- |
| AACAAAGTCATACATACATACATATATATATATATA [GTGCAC_negctrl_site632] | 9.26 |
| TCAATAATAAAAAACACACACAAAAAAAAATAATTA [CACACA_site2798] | 6.73 |
| CATGAATCCTAATAATGTACATAAGAATTCATAATG [XGTACX_site1607] | 6.23 |
| ATAAGCATACATATTACACACATATAATATATATAT [CACACA_site2487] | 8.09 |
| TACATATATATATATGAACACACAAAAAGAATATTT [CACACA_site8421] | 6.76 |
| TTTTATGAGAAACACACACACAAAAAAAAAAAAAAA [CACACA_site4129] | 6.28 |
| TCTTACTAATTTATGGGGACTTATCACCTATTCAGT [CACACA_negctrl_site652] | 6.36 |
| AGTGGATAAATTTATTCACACATTTTTTTTTTTTTT [CACACA_site5914] | 6.35 |
| ATTTTTTTTTCTTGTACACACTATTTTATAATTTTA [CACACA_site6102] | 7.29 |
| TTAGCTTATCATTACTGTACTTTATTCATATATATG [XGTACX_site8008] | 6.5 |
| TAAACATTCTTATATAGTACCCATATTAAAATATAC [XGTACX_site8014] | 6.21 |
| ACATACATATATTTATGTACATATATATTTATGATT [XGTACX_site6485] | 6.59 |
| AATTTATATTTATGTGCATGTAATAACTGTATATAA [TGCATGCA_site349] | 8.39 |
| AAAAAAAGATTATACACACACATATATAAACATACA [CACACA_site4553] | 6.83 |
| TTTTGGTGTATAGTATTAATATAAAATAATTATATT [CACACA_negctrl_site47] | 6.8 |
| AAATTAAAATAAAATAGTACATATATTTATATTTTT [XGTACX_site1687] | 6.01 |
| ATGAAAAAAAAAAAAAAAAAAAAAAAAAAAAAAATA [CACACA_negctrl_site1083] | 5.72 |
| ATTTTTTTGTATATATATGACTGGGGATATAATCAA [GTGCAC_negctrl_site274] | 6.92 |
| TATTATTTTTCATATGCATGCAAAAATAAAAAAATA [TGCATGCA_site350] | 6.71 |
| TATAAAAAAAAAAAAAAAAAAAAAAATATATATATA [CACACA_negctrl_site817] | 8.92 |
| AAAAAAAAAAAAAATTGTACTTAAATATATATATAT [XGTACX_site7604] | 8.7 |
| AAATATATAAAAGTATGTACATATGAAAAATATATA [XGTACX_site6165] | 7.09 |

| Sequence | gcPBM binding intensity (ln) |
| --- | --- |
| TTATATAACATAACGATGTTTCAAAACATATTGTAT [CACACA_negctrl_site997] | 6.42 |
| TTATAAAGAATTAGGAGTACAAATGCATATATAATA [XGTACX_site6580] | 7.05 |
| TGTGTATAAAAAAAGTGTACACAAAGTAAGACTTTA [XGTACX_site3759] | 7.02 |
| AGCAACTAAAAAGGATACCCCATTAAAAAAAAATTA [XGTACX_negctrl_site489] | 6.21 |
| TACCAAAAAACGGCACGCATATGTATAAGAATATGT [XGTACX_negctrl_site470] | 6.75 |
| TATAAATATTATAATTGTACATATTATAAAAATTTT [XGTACX_site2719] | 6.41 |
| TTTAAAATTTAATTTTGTACATATACCAATTTTATT [XGTACX_site448] | 6.39 |
| AATATATAATCAGATGAATTTTTTTTTTTTTTTTCA [CACACA_negctrl_site534] | 5.84 |
| ATATAATATATGTTATGTACATAGTTTTTATTGTTC [XGTACX_site7438] | 6.61 |
| ATATAATGTTAGGGTAGAGGAAGTAACTAATATAAA [CACACA_negctrl_site1153] | 6.78 |
| AATTTTTTATTCTTTGCATGTCATCATATATAATAT [TGCATGCA_site549] | 6.96 |
| ATATAAATATGAAAAAGTACAAGCCATCAAGAAATC [XGTACX_site8140] | 6.72 |
| AATTAGCATAAATGGGTGCTACACAAAAATGCATGT [GTGCAC_site9640] | 6.65 |
| ATTTTTTTACTGGATCCATATTTGCTTTTTTATTTA [CACACA_negctrl_site1108] | 7.06 |
| GTGGATATATGTATATGTACATATGTATGTATATAT [XGTACX_site2412] | 6.7 |
| TCTCTTTTTCGTTCATGTACAAATAAATAAAAATAT [XGTACX_site6558] | 6.64 |
| GTATATTTTATTTTATGTACATATTCATTTTTTATT [XGTACX_site561] | 7.26 |
| TTATATATATGACTTTGTACATATACATATTTTTTA [XGTACX_site4669] | 6 |
| TATTATATATATGCACGTACAAAAATAATAAAGGTA [XGTACX_site3506] | 8.49 |
| TTAATTAAGAAACACACACACATATATATATATATT [CACACA_site2290] | 6.88 |
| TTTTTAATTTACTGTCATAGGTACCTTAACTTATCA [CACACA_negctrl_site1664] | 6.21 |
| ATATAATAAATGTCATGTACATACAACATTTTAACT [XGTACX_site7517] | 6.39 |

| Sequence | gcPBM binding intensity (ln) |
| --- | --- |
| TATTAATAATTTTCATGTACATATGTATTTGTAATA [XGTACX_site858] | 6.47 |
| TGAATAAAGAAACACACACACATATATATATATGTA [CACACA_site17] | 6.71 |
| TACATATACATATTGTGTACATAATAATTATTTATA [XGTACX_site7884] | 6.65 |
| TACTTATGTTCGCACACATGCAAATTAAAAAAAAAA [TGCATGCA_site1023] | 8.2 |
| TTTTAAATAAAATATTGTACATTAAAATTGTAATAT [XGTACX_site2128] | 6.48 |
| ATTATAAATATGTATATACACACTTTTAATATTCAT [CACACA_site9367] | 6.7 |
| TAAGATAAATGATAAAGTACTTTTTTTTTTTAAATA [XGTACX_site2326] | 5.69 |
| AAGCAAACATATTAATGTACACACACCCACACACAA [XGTACX_site5806] | 6.96 |
| AATTTTAAAAATATAACACACATATATAAAATATAT [CACACA_site3610] | 6.4 |
| AATGAAGAAAAAAAAAGTACATTATTTTTAAAACTT [XGTACX_site563] | 6.51 |
| CAAAAATAAACTATAGTACACACTTATTATTATGAA [CACACA_site2702] | 6.33 |
| ATTTGGCATAGACACACACACACACGCACGCACATA [CACACA_site6424] | 7.9 |
| TATGTTCATCATAGCACACATATATAAATTACAACA [CACACA_site3533] | 6.65 |
| ATTGTAATCATATGAAGTACTAATATATATTTTAAT [XGTACX_site8350] | 6.72 |
| TTTTTATGTAGAATTTTTTTATTTTTTCAAAATGGA [CACACA_negctrl_site166] | 5.94 |
| ATTTATAAAATTAATAGTACATATATTTATATATAT [XGTACX_site4173] | 6.49 |
| TATTGCACAAAATAATTTTATTATACTTTATGTTAG [TGCATGCA_negctrl_site574] | 10.8 |
| TGTATTACGAAAAAATGTACAGAAAAAGAAACAAAA [XGTACX_site2777] | 7.42 |
| TGGGATAGATCATTTACACACACAAAAAAAAAAAAA [CACACA_site2140] | 6.6 |
| TTTGTCATAAGCAATGCATGTAAGTTTCTGACATTA [TGCATGCA_site1007] | 6.22 |
| TAAATAAAAAAACACACACACATATATATATATATA [CACACA_site2269] | 9.22 |
